Data reported in a compilation of properties of binary mixtures (doi:10.1016/j.colsurfa.2018.02.014).
The densities may have been worked out from excess volumes.

Assay: xn = mol fraction of the nth substance listed
Conditions: 100 kPa

CCCC[n+]1ccn(C)c1.O=C([O-])[C@@H]1CCCN1 + O
mass density [kg/m3]
Conditions | 293.15 K | 298.15 K | 303.15 K | 308.15 K | 313.15 K | 318.15 K
x1 = 0.0081 | 1013.8 | 1010.8 | – | 1005.9 | – | 1000.7
x1 = 0.0116 | 1020.1 | 1017.2 | 1014.1 | 1011.6 | 1008.1 | 1005.4
x1 = 0.0162 | 1027.5 | 1024.4 | 1021.8 | 1019 | 1015.1 | 1012.4
x2 = 0.6418 | 1114.8 | 1110.3 | 1106.6 | 1103.2 | – | 1097.2
x2 = 0.7818 | 1114.2 | – | 1107.4 | 1104.2 | 1100.5 | 1096.7
x2 = 0.8628 | 1108.6 | 1105.2 | 1101.5 | 1098.2 | 1094.5 | 1090.8
x2 = 0.9014 | 1097.6 | 1092.5 | 1088.6 | 1086.4 | – | 1078.1
x2 = 0.9293 | 1083 | 1078.7 | 1073.5 | 1071.8 | 1068.6 | 1065.1
x2 = 0.9459 | 1071 | 1066.7 | 1062.9 | – | 1055.9 | 1053.1
x2 = 0.9617 | 1056.5 | – | – | 1047.5 | 1043.1 | 1039.9
x2 = 0.9748 | – | – | 1034.4 | 1032 | 1028.4 | 1025.7

CCCCCCCC[n+]1ccn(C)c1.O=C([O-])[C@@H]1CCCN1 + O
mass density [kg/m3]
Conditions | 293.15 K | 298.15 K | 303.15 K | 308.15 K | 313.15 K | 318.15 K
x1 = 0.012 | 1015.5 | 1013.2 | 1011.2 | – | 1004.6 | 1001.3
x1 = 0.0196 | 1023.1 | 1021 | 1018.8 | 1016.2 | 1012.4 | –
x2 = 0.3768 | 1060.4 | – | 1053.9 | 1050.7 | 1047.4 | 1043.6
x2 = 0.5821 | 1066.5 | 1063.1 | 1059.8 | – | 1053.1 | 1049.4
x2 = 0.7123 | 1070.8 | 1066.7 | – | – | – | 1052.1
x2 = 0.8111 | 1070.7 | 1067.1 | 1063.4 | 1059.8 | 1056.1 | 1052.9
x2 = 0.8773 | 1062.9 | 1059.6 | 1055.6 | 1053 | 1049.8 | 1046.5
x2 = 0.9032 | 1057.6 | – | 1050.7 | 1048.1 | 1044.7 | 1041.6
x2 = 0.9331 | – | 1046.7 | 1042.9 | 1040.1 | 1036.6 | 1033.6
x2 = 0.9524 | – | 1038.4 | – | 1032.6 | – | 1026.1
x2 = 0.9664 | 1034.1 | 1031.4 | 1028.7 | 1025.9 | 1022.7 | 1018.8
